PubChem BioAssay AID1768 (National Center for Advancing Translational Sciences (NCATS), 2009)
About 620 (0.23%) of roughly 270,000 compounds were called active. This list was built around the results that the source calls inconclusive (neither active nor inactive); the mix of calls is not that of the screen. The call rests on the fitted dose curve; in most records, active means well fitted inhibition curve with a large enough effect in the polarisation, with a control signal flat (not every such curve was filed as active); inconclusive means small, poorly fitted or top-dose-only effect, or effect the other way, or a change in a side signal; inactive means no such curve, though single readings can be large or run the other way; the % refers to the polarisation. Potencies beside an inconclusive call are fits to weak or partial responses and may not hold up. “Side channel” marks fits to a control or component signal instead of the main read-out.

Biological target: Menin (Homo sapiens) (UniProt O00255)
Chain of UniProt O00255 (O00255 whole entry, looked up): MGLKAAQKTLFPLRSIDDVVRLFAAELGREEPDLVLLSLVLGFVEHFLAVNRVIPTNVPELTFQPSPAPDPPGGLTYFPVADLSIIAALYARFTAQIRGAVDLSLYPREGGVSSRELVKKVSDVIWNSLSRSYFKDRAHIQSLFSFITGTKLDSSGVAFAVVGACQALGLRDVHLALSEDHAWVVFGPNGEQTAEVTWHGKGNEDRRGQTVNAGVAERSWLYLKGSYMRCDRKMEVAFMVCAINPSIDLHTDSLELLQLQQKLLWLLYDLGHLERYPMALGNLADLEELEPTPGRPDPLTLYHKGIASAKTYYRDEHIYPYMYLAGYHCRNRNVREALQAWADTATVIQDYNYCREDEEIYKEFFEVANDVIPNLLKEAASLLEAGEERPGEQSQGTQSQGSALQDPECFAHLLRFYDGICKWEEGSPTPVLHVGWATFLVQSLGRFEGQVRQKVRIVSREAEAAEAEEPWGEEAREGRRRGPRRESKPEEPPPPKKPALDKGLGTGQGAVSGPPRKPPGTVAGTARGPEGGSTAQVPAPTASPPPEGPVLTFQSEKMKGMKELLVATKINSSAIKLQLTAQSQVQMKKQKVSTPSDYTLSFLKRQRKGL
Assay: qHTS Assay for Inhibitors Targeting the Menin-MLL Interaction in MLL Related Leukemias: Competition With Texas Red Labeled MLL-derived Mutant Peptide; on FP activity change, negative = inhibition: % of control where 0% means no effect
Conditions: fluorescence polarization; FP activity change, negative = inhibition: at 61.6 µM (top of the series)
Potency means the concentration at half of the fitted maximal effect; tags describe the fitted curve by direction and shape or compound fluorescence and quenching.

Potency, inconclusive:
Cc1ccc(-c2nc3ccccc3[nH]2)cc1NC(=S)NC(=O)c1ccccc1Br 39.8 µM [inhibitor, single point], COC(=O)c1ccc2c(=O)n(NC(=O)C(c3ccccc3)c3ccccc3)c(=S)[nH]c2c1 35.5 µM [quencher, side channel, single point], Cc1nnc(SCC(=O)c2ccc([N+](=O)[O-])cc2)s1 14.1 µM [quencher, partial curve], Cc1cc([N+](=O)[O-])ccc1NC(=O)Nc1ccc(F)cc1F 14.1 µM [quencher, side channel, partial curve], COc1cc2c(cc1OC)-c1cc(Nc3cccc(C)c3)nc(=O)n1CC2 39.8 µM [quencher, side channel, single point], O=C(NNC1=C(C(=O)C(F)(F)F)CCC1)c1ccc(Cl)cc1 25.1 µM [quencher, side channel, single point], OCCN1CCN(CCSc2ccccc2)CC1 35.5 µM [inhibitor, single point], O=C(NCCCN1CCCCCC1)C1CC(=O)N(C2CCCC2)C1 (configuration not stated) 31.6 µM [inhibitor, single point], Oc1ccc(C2Nc3cccc4cccc(c34)N2)cc1 14.1 µM [quencher, side channel, partial curve], O=C(NCC1COc2ccccc2O1)c1ccc(NC(=O)C(c2ccccc2)c2ccccc2)cc1 (configuration not stated) 3.16 µM [quencher, side channel, single point], COC(=O)C1=C(C(=O)OC)[C@@H]2Nc3ccccc3[C@@]23C[C@@H](C(=O)OC)N(C(=O)c2cc(C)oc2C)C3=N1 0.891 µM [fluorescent, side channel, partial curve], CC(=O)c1cccc(NC(=S)NC(=O)c2ccccc2C)c1 12.6 µM [quencher, side channel, partial curve], C=C(C)COc1ccc(-c2n[nH]c(C)c2-c2ccc(OC)cc2)c(O)c1 11.2 µM [quencher, side channel, partial curve], Cc1ccc(C(=O)NCC(=O)NCC(=O)OCC(=O)c2ccc(Br)cc2)cc1 39.8 µM [inhibitor, single point], Cc1[nH]n2c(=O)c(C#N)c(-c3ccccc3)nc2c1-c1ccccc1 39.8 µM [inhibitor, single point], CCCc1ccc(OCC(O)CN2CCN(C(=O)OCC)CC2)cc1 (configuration not stated) 25.1 µM [fluorescent, side channel, partial curve], Cc1ccc(NC(=O)COc2ccccc2C(=O)Nc2ccccc2)cc1Cl 7.08 µM [quencher, side channel, partial curve], CCOc1ccc(-c2nnn(CC(=O)Nc3cc(OC)cc(OC)c3)n2)cc1OCC 7.08 µM [quencher, side channel, full curve], N#Cc1ccsc1NC(=O)COC(=O)c1ccc2ccccc2c1 17.8 µM [quencher, side channel, partial curve], COCCn1c(N)c(C(=O)Nc2sc3c(c2C(=O)OC)CCCC3)c2nc3ccccc3nc21 3.55 µM [quencher, side channel, full curve], COc1ccc2oc(C(=O)OCC(=O)NC(=O)c3ccccc3)c(C)c2c1 39.8 µM [inhibitor, single point], Nc1nnc(-c2ccc(Cl)c([N+](=O)[O-])c2)s1 39.8 µM [quencher, side channel, single point], O=C(N/N=C/c1c[nH]c2ccccc12)c1cc(-c2ccc3ccccc3c2)n[nH]1 0.631 µM [quencher, side channel, full curve, poor fit], CCN1CCN(CC(=O)Nc2ccc(C)c(Br)c2)CC1 25.1 µM [quencher, side channel, single point], CC(C)(C)c1ccccc1OCCOCCN1CCCCCC1 2 µM [fluorescent, side channel, partial curve], CC1CCC(C(C)C)C2=C1C(C#N)(C#N)C(C#N)(C#N)C(c1ccccc1)N2 (configuration not stated) 28.2 µM [quencher, side channel, single point], COc1cc(/C=N/N=C(/C(=O)c2ccccc2)c2ccccc2)cc(OC)c1O 14.1 µM [quencher, side channel, partial curve], Cc1ccc(N=C2SC(C(=O)Nc3ccc(OC(F)(F)F)cc3)C(N)=C2C(=O)Nc2c(C)cc(C)cc2C)cc1 (configuration not stated) 5.01 µM [quencher, side channel, full curve], CCOc1cc([N+](=O)[O-])cc(/C=N/NC(=O)c2c(-c3ccccc3)noc2C)c1O 10 µM [quencher, side channel, partial curve], Cc1ccccc1C(=O)NC(CC(C)C)C(=O)N1CCN(c2ccccc2)CC1 (configuration not stated) 14.1 µM [inhibitor, partial curve], CCN(CC)CCN(C(=O)c1ccc2c(c1)CCCC2)c1nc2c(C)cccc2s1 7.94 µM [fluorescent, side channel, full curve], COc1ccc(N2CCN(c3ccc(NC(=O)c4ccc5c(c4)OCO5)cc3C#N)CC2)cc1 39.8 µM [inhibitor, single point], Cc1ccc(-c2cc(C(=O)NC3CCCCC3)no2)cc1 10 µM [fluorescent, side channel, partial curve], O=C(c1cc(C(=O)c2ccco2)cc(C(=O)c2ccco2)c1)c1ccco1 39.8 µM [inhibitor, single point], CN(C)C(=O)CSc1nnc(-c2ccncc2)n1Cc1ccco1 0.631 µM [inhibitor, full curve, poor fit], CCOc1ccc(C2C(C(C)=O)=C(O)C(=O)N2CCc2c[nH]c3ccccc23)cc1 (configuration not stated) 35.5 µM [quencher, side channel, single point], Clc1cccc(Cl)c1C1Nc2cccc3cccc(c23)N1 15.8 µM [quencher, side channel, partial curve], COc1cc(OC)cc(C(=O)Nc2cccc(C(C)=O)c2)c1 0.708 µM [inhibitor, full curve, poor fit], O=C(O)c1ccc(Nc2ncnc3scc(-c4ccccc4)c23)cc1 39.8 µM [inhibitor, single point], Cc1cc(C(=O)N/N=C/c2ccc(-c3cccc([N+](=O)[O-])c3)o2)n[nH]1 10 µM [quencher, side channel, single point], CCC1CCCCN1S(=O)(=O)c1ccc(C(=O)Nc2nnc(-c3ccccc3Cl)o2)cc1 (configuration not stated) 39.8 µM [quencher, side channel, single point], Cc1ccc(/C=C2/SC(=S)N(C3CCCCC3)C2=O)o1 20 µM [quencher, side channel, partial curve, poor fit], O=C(c1ccccc1)c1ccc(OC(=O)N2CCCC2)cc1 20 µM [inhibitor, partial curve, poor fit], O=C(OCCOCCN=C1NS(=O)(=O)c2ccccc21)c1ccccc1Br 0.631 µM [inhibitor, full curve, poor fit], O=C(CSc1n[nH]c(=O)[nH]c1=O)Nc1ccc(C(=O)O)cc1 2.82 µM [inhibitor, full curve], COc1ccc(C)cc1S(=O)(=O)N(CC(=O)Nc1cccc([N+](=O)[O-])c1)c1ccccc1 10 µM [quencher, side channel, partial curve], COc1ccccc1/C=N/Nc1nncc2ccccc12 10 µM [quencher, side channel, partial curve], Cc1oc2c(cc(NS(=O)(=O)c3cccs3)c3ccccc32)c1C(=O)OC(C)C 3.16 µM [quencher, side channel, full curve], CC(C)(C)OC(=O)N/N=C\c1ccc([N+](=O)[O-])s1 20 µM [quencher, side channel, single point], Cc1ccc(NC(=O)CN(c2ccc(Cl)cc2)S(=O)(=O)c2cc([N+](=O)[O-])ccc2Cl)c(C)c1 11.2 µM [quencher, side channel, partial curve]

FP activity change, negative = inhibition, inactive:
CCC(=O)N1CCN(c2ccc(NC(=O)COc3ccc(C)cc3C)cc2)CC1 -14.7%, CCOc1ccc(N2CC(C(=O)NCCc3ccc(OC)c(OC)c3)CC2=O)cc1 (configuration not stated) 12.1%, CCOc1ccc(/C=N/n2c(SC)nnc(C(C)(C)C)c2=O)cc1 -29.5%, CC(=O)Nc1ccc(Nc2c3c4c(cccc4n(C)c2=O)C(=O)c2ccccc2-3)cc1 -9.46%, CC(Nc1cc(C)cc(C)c1)=[N+](C)CCNS(=O)(=O)c1ccc(Cl)cc1 -22.7%, Cc1c(Cc2ccccc2)c(=O)oc2c(O)c(O)ccc12 0.0451%, CCO/C=N/c1c(C#N)c2c(c(=S)n1C)COC(C)(C)C2 -21.1%
